About 540 (0.36%) of roughly 150,000 compounds showed an effect of 50% or more. The list shows a part of the results.

As usually defined, the % Inhibition is the drop in the measured response relative to a control, in per cent.

The subject of this test is Plasmodium falciparum. The experiment in a line: Primary screen in NF54 nanoGlo assay, in single point, at 2uM, 72h; a lower Z score goes with more inhibition. It is filed as functional, Erythrocyte. To be noted: timepoint 72 hour.
In the case of `Cn1cc(CCC(=O)OCCNc2cccnn2)cn1`, the “% Inhibition” value was 2% and the Z score is given as -0.17.
For `Cc1cc(CCNS(=O)(=O)Cc2ccccc2)nn1C`, in that order: -1% and 0.24.
For `COCC(=O)N1CCC([C@@H]2N(C(=O)OC(C)(C)C)CC2(C)C)CC1`, the “% Inhibition” value is -6% and the Z score turned out to be 1.16.
Consider `CCN(CC)CCNCc1ccccc1`, for which the “% Inhibition” value is recorded as -4% and the Z score was determined as 0.4.
As to `COC[C@@H]1OC[C@@]2(C)C3CC[C@@H](O)[C@@H](CC(=O)NCc4ccc(F)cc4)[C@]3(C)CC[C@H]2O1` (some centres not stated), the “% Inhibition” value is given as 8% and the Z score was -0.92.
For the compound `Cc1ccc(O)c(C(=O)NC2CCOC(C3CC3)C2)c1` (configuration not stated), the “% Inhibition” value is given as -2% and the Z score is listed as 0.26.
In the case of `CNc1ccc(F)c(S(C)(=O)=O)c1`, the “% Inhibition” value amounted to 2% and the Z score was -0.21.
For `CCOC(=O)N1CCN(C(=O)c2cn3c(n2)CC[C@H](c2ccc(F)cc2)C3)CC1`, in that order: -23% and 2.23.
As to `O=C(CN(C(=O)c1ccc(F)cc1)C1CC1)Nc1nc(-c2ccccc2)cn1-c1ccc(C(F)(F)F)cc1`, the “% Inhibition” value is reported as -9% and the Z score was 1.4.
For `CCCC[C@H]1C(=O)N(C)CCN1C(=O)c1ccc(-c2cc(N)ccn2)cc1`, in that order: 15% and -2.14.
As for `COCCn1nnc2c1CCN(CC1CCC(C)O1)C2` (configuration not stated), the “% Inhibition” value came out at 19% and the Z score is given as -2.42.
Regarding `CC(C)(CNS(=O)(=O)c1cccs1)c1ccsc1`, the “% Inhibition” value is -7% and the Z score amounted to 1.28.
`Cc1cc(C)nc(NC2=NC(=O)CN2c2ccc(Cl)cc2Cl)n1`: the “% Inhibition” value is -4% and the Z score amounted to 0.53.
With `C/C=C(\C)C(=O)N1CCC(N2CCC(C(=O)N3CCCC3)CC2)CC1`, the “% Inhibition” value is -12% and the Z score came to 1.74.
Regarding `O=S(=O)(Nc1cccc(C#Cc2cccs2)c1)c1ccc(F)c(F)c1`, the “% Inhibition” value is given as -8% and the Z score was found to be 1.11.
As for `NC(=O)C1CCC(C(=O)Nc2nc(C3CC3)cs2)CC1` (configuration not stated), the “% Inhibition” value is listed as -13% and the Z score turned out to be 2.48.
Take `O=C(NCc1ccco1)c1ccc(CN2CC(=O)N3CCCC[C@H]3C2=O)cc1`: the “% Inhibition” value worked out at 3% and the Z score was -0.54.
For `CC[C@@H](C(N)=O)N1Cc2cccc(F)c2C1`, in that order: -10% and 0.92.
For `Cc1nc2sccn2c1CN[C@H]1CCCc2c1cnn2-c1ccc(C(C)(C)C)cc1`, in that order: 4% and -0.52.
For `CCCc1ccc(S(=O)(=O)N2CCC[C@H]2c2nc(-c3cccc(C)c3)no2)cc1`, in that order: -10% and 1.51.
As to `COc1cccc(OC)c1C(=O)n1ccnc1`, the “% Inhibition” value is on record as -7% and the Z score is listed as 1.05.
Turning to `CNc1snc(C)c1C(=O)N1CCN(C(=O)[C@@H]2CCCO2)CC1`, the “% Inhibition” value is given as -13% and the Z score was 1.17.
Regarding `Cc1ccc(CNc2cc(C(=O)N3CCC[C@H](C(N)=O)C3)cc(S(=O)(=O)N(C)C)c2)s1`, the “% Inhibition” value is -7% and the Z score came out at 0.82.
Take `O=C1CCCc2ccc(NC(=O)N3CCCC3)cc21`: the “% Inhibition” value is reported as -10% and the Z score is on record as 1.14.
For the compound `COc1ccc(Cc2nc(-c3ccc4nnn(C(C)C)c4c3)no2)cc1`, the “% Inhibition” value is -7% and the Z score turned out to be 1.12.
For `CCOC1CC1NC(=O)[C@@H](O)Cc1ccccc1` (some centres not stated), in that order: 10% and -1.33.
In the case of `COCCCCC(=O)N1CCC[C@H](N)[C@@H]1c1ccccc1OC`, the “% Inhibition” value was found to be 4% and the Z score is -0.43.
Take `Cc1nc2ccc(NC(=O)c3ccc4ncsc4c3)cc2s1`: the “% Inhibition” value is given as -6% and the Z score was determined as 1.01.
Take `Cc1cc(C(=O)N2CCO[C@H](c3cccnc3)C2)c(C)o1`: the “% Inhibition” value is -15% and the Z score is 2.26.
For `Cc1cnc(C(=O)N2CCC[C@H](N(C)C(=O)CCc3nccs3)C2)cc1C`, the “% Inhibition” value is reported as -4% and the Z score is reported as 0.84.
Regarding `O=C(NC1CCC(CC2CCC(NC(=O)c3cnccn3)CC2)CC1)c1cnccn1` (configuration not stated), the “% Inhibition” value is listed as -2% and the Z score is given as 0.31.
As for `Cc1ccc(C)n1-c1ccc2c(c1)OCO2`, the “% Inhibition” value is -9% and the Z score amounted to 1.2.
Turning to `O=C(NCc1nc(-c2ccco2)n[nH]1)c1ccc2ccccc2n1`, the “% Inhibition” value was -6% and the Z score worked out at 0.72.
For `CN(C)[C@@H](Cc1ccccc1)C(=O)N1CCC(C(=O)N2CCCCCC2)CC1`, in that order: -11% and 1.43.
Take `CC(C)C(CNC(=O)C1CNC(=O)C1)Cc1ccccc1` (configuration not stated): the “% Inhibition” value is -6% and the Z score is 0.65.
As for `CCc1nc(CN2C(=O)C(=O)N([C@@H](C)c3ccccc3)C2=O)no1`, the “% Inhibition” value is recorded as -11% and the Z score is 1.43.
With `CCOc1cccc(Cn2c(=O)c3sccc3n(CC(=O)N3CCCc4ccccc43)c2=O)c1`, the “% Inhibition” value is reported as -6% and the Z score is recorded as 0.9.
Take `Cc1n[nH]c([C@@H]2CCN(C(=O)c3cccnc3)CCN2C(=O)Cc2ccccc2)n1`: the “% Inhibition” value is -5% and the Z score was found to be 0.66.
In the case of `CC1=NS(=O)(=O)N(CCOc2ccccc2)C=C1c1nc(-c2ccccc2)no1`, the “% Inhibition” value was -1% and the Z score turned out to be 0.15.
For `O=C(C[C@H]1CCCN1CC(=O)N1CCCCCCC1)c1ccc(F)cc1`, in that order: -10% and 1.93.
As to `Cc1nc(-c2ccnc(NC(=O)NCCCCO)c2)n[nH]1`, the “% Inhibition” value is -2% and the Z score amounted to 0.18.

These data come from ChEMBL document CHEMBL4888484, “Replenishing the malaria drug discovery pipeline: Screening and hit evaluation of the MMV Hit Generation Library 1 (HGL1) against asexual blood stage Plasmodium falciparum ,using a nano luciferase reporter read-out” (2022).
